# Laboratory results: PubChem BioAssay AID488969 (Vanderbilt High Throughput Screening Facility, 2010)
# The full ranking holds about 110,000 compounds; the median of “z-score” is about -0.1, and the highest 2% start at about 2. Some of the results follow. Active and inactive are the calls of the source.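 Rule for the calls: active = z-score in the third read window above 3 or below -3; inactive = the rest.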
# Biological target: Metabotropic glutamate receptor 8 (Rattus norvegicus) (UniProt P70579)
# Chain of UniProt P70579 (P70579 whole entry, looked up): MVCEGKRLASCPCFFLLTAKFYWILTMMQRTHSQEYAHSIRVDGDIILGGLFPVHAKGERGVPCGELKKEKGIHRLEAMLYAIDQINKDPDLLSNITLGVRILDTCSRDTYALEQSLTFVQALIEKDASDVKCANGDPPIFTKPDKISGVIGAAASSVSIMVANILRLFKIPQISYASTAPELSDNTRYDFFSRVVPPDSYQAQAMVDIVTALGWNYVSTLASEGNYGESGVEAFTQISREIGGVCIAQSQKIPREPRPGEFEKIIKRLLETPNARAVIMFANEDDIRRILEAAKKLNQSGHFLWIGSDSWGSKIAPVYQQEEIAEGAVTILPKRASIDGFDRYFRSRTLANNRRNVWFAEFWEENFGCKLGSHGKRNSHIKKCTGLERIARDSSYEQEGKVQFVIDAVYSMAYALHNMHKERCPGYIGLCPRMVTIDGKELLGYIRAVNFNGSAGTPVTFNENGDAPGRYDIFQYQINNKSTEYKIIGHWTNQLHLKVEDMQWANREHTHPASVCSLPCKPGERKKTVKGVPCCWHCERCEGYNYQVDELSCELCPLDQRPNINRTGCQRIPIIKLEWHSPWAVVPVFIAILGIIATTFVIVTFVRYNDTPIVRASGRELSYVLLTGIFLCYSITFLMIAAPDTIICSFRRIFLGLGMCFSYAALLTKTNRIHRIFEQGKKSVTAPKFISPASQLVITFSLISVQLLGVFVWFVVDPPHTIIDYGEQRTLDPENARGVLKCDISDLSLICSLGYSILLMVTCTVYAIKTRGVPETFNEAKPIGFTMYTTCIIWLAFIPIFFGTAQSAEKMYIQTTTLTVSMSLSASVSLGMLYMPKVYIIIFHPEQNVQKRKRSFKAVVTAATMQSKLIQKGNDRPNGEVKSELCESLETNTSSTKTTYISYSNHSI
# Assay: mGluR8 Gi/Go-coupled signaling modulation – cell-based, rat, thallium flux, HTS, primary screen (AID 488969)
# Settings: HEK293 rat mGluR8, GIRK (G protein-gated inwardly rectifying potassium channel) thallium flux, FluoZin2; at 10 µM; stronger effect = higher value; submaximal glutamate (EC20) added with thallium
row,SMILES,z-score
1,Cc1ccc(S(=O)(=O)/N=C2/NC(=O)/C(=C/c3cccnc3)S2)cc1,0.0604
2,c1ccc2cc(CN3CCOCC3)ccc2c1,0.71
3,Cn1c(=O)c2c(ncn2CC(=O)OCC(=O)NC2CCCc3ccccc32)n(C)c1=O (stereo unspecified),-0.0161
4,CCOC(=O)c1cnc(C(C)(C)C)[nH]c1=O,-0.298
5,CC(C)C(=O)OCC(=O)Nc1ccc2c(c1)CCC2,-0.0865
6,Cc1ccc(-c2cc(N)n(-c3ccc(C)cc3)n2)cc1,-0.731
7,Nc1ccc(O)c(-c2nc3ccccc3s2)c1,0.263
8,CC1=CC(=Nc2c(C)n(C)n(-c3ccccc3)c2=O)C=C(C)C1=O,0.433
9,CCN(CC)S(=O)(=O)c1cccc(C(=O)N2CC(O)CC2C(=O)O)c1 (stereo unspecified),0.56
10,CC1=CCC2C(=O)N(C(C)c3ccccc3)C(=O)C2C1 (stereo unspecified),0.21
11,COc1ccc(OC)c(C2N(c3cc(C)on3)C(=O)C3CCCN32)c1 (stereo unspecified),0.389
12,CC(C)(C)SCCNC(=O)CN(c1ccc(F)c(Cl)c1)S(C)(=O)=O,-0.242
13,CC1=C(C)CC(C(=O)Nc2cccc([N+](=O)[O-])c2)C(C(=O)O)C1 (stereo unspecified),-0.414
14,Cc1ccc(C(=O)CC(C(=O)O)n2ccc(C)n2)cc1 (stereo unspecified),-0.0978
15,COc1cc(/C=C/C(=O)c2c(O)ccc3c(C)cc(=O)oc23)ccc1O,-0.219
16,Cc1ccc(O)c(CCc2ccccc2)n1,-0.325

row,SMILES,z-score
1,O=C(Nc1nnc(-c2ccc(Cl)cc2)o1)c1ccccc1Br,active: 5.35
2,C=C(C)CSc1nc(C)c(Cc2ccccc2)c(=O)[nH]1,-0.365
3,CC1CN(Cc2nc3c(c(=O)n(C)c(=O)n3C)n2Cc2ccccc2)CC(C)O1 (stereo unspecified),-0.162
4,O=C(Cn1c(SCC(=O)NC2CCCC2)nnc1-c1ccncc1)Nc1ccc2c(c1)OCO2,-0.0386
5,CCOc1ccc(-c2nc(C)c(C(C)=O)n2O)cc1,-0.288
6,O=C(NOC(=O)c1ccccc1Cl)c1cccs1,-0.383
7,Cc1ccc(C)c(N(CC(=O)NCc2ccc3c(c2)OCO3)C(=O)CCC(=O)Nc2ccccn2)c1,-0.166
8,Cc1nc2nc(CCc3ccccc3)nn2c(C)c1Cl,-0.237
9,Cn1cnnc1SCC(=O)Nc1ccc2nc(SCc3ccccc3)sc2c1,0.305
10,CC(=O)NC(Cc1ccccc1)C(=O)N1CCN(C(=O)c2cccs2)CC1 (stereo unspecified),0.223
11,CCCC[N+](C)(C)CCC(=O)NC(C)(C)CS(=O)(=O)[O-],1.2
12,CNc1ccc(Br)cc(C(=O)/C=C/c2ccc(OC)cc2OC)c1=O,-0.255
13,CC(=O)Oc1ccc(C(=O)Nc2cc(C)ccc2NC(=O)COc2ccccc2)cc1,-0.118
14,CCC(C)(C)n1nnnc1C(c1ccccc1)N1CCN(C2CCCC2)CC1 (stereo unspecified),0.195
15,O=C(OCn1nnc2ccccc2c1=O)c1ccc2ccccc2n1,-0.354
